Experimental findings from PMC4336329 (PLoS ONE, 2015) are described below.

Among all 310,000 compounds or so, about 14,000 (4.5%) showed an effect of 50% or more. The effect is printed as a negative number. The list shows a part of the results.
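Further: peak tail current of the secondary pulse compared with the same well before compound.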

Chain of human ether-à-go-go-related gene (hERG) potassium channel (Q12809 whole entry, looked up): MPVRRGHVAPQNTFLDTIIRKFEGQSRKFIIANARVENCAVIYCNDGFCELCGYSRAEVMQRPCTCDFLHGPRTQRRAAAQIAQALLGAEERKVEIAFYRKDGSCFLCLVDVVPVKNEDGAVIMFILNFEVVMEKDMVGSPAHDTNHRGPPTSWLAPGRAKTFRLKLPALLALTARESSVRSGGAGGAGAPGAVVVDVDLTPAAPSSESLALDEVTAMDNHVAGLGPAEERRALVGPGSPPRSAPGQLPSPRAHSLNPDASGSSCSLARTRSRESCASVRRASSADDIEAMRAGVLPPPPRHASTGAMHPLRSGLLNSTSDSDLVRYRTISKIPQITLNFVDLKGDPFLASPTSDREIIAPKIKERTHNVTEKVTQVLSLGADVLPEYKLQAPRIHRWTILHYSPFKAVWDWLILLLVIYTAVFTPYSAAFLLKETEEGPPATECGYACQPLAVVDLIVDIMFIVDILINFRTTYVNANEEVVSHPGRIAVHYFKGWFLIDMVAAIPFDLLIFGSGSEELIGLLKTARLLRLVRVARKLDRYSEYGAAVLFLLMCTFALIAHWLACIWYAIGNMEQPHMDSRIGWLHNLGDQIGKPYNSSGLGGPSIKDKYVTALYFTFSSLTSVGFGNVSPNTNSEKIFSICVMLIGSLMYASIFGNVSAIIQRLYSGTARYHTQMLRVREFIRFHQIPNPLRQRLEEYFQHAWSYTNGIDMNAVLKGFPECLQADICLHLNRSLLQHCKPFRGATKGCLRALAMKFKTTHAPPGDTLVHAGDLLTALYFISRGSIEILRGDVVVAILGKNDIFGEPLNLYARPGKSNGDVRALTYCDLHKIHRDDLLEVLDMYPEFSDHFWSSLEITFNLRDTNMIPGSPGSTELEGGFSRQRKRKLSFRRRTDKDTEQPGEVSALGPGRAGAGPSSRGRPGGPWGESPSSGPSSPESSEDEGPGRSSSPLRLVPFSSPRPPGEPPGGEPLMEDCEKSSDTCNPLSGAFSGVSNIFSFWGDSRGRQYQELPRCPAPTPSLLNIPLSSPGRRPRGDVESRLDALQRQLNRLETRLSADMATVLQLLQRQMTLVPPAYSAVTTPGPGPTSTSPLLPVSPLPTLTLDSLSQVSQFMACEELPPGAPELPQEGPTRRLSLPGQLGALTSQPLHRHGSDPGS

The assay addresses human ether-à-go-go-related gene (hERG) potassium channel (human, UniProt Q12809). The assay is described as follows: primary screen, population patch clamp on CHO cells stably expressing hERG.
On to `Cc1cc(C)n2[nH]c(=O)c(N=Nc3ccc(S(N)(=O)=O)cc3)c2n1`, for which the “hERG current change (%, negative = inhibition) at 10uM” value came to 26.4%. The same measure for `COc1ccc(OC)c(C2C(C#N)=C(N)N(N(C)C)C3=C2C(=O)CCC3)c1` (centres unmarked): -6.02%; for `CC(C)=CCN1CCN(Cc2cccn2-c2nccs2)CC1CCO` (centres unmarked): -34.1%; for `Fc1ccc(CSc2ncnc3sc4c(c23)CCCC4)cc1`: 18.4%.

For the compound `Cn1c(=O)c2c(nc(NCc3ccco3)n2Cc2ccc(Cl)cc2Cl)n(C)c1=O`, the “hERG current change (%, negative = inhibition) at 10uM” value was found to be 3.8%.

Consider `Clc1cc2nc[nH]c2cc1Cl`, for which the “hERG current change (%, negative = inhibition) at 10uM” value is -14.9%. Turning to `CCOC(=O)Cc1csc(NC(=O)C(NC(=O)C2CCCCC2)C(C)C)n1` (centres unmarked), the “hERG current change (%, negative = inhibition) at 10uM” value worked out at 5.13%. For `O=C(CCn1c(=O)[nH]c2ccsc2c1=O)Nc1ccc(F)c(F)c1`, the “hERG current change (%, negative = inhibition) at 10uM” value is recorded as 21%. Then `O=Cc1sc(Nc2ccccc2)nc1Cl`, with -13.1%; and `Cc1ccc(C(=O)NCCc2nnc3ccc(NCc4ccc5c(c4)OCO5)nn23)cc1`, with 1.81%.

Turning to `O=C(Cn1c(=O)oc2cc(S(=O)(=O)N3CCCCCC3)ccc21)NC1CCCCC1`, the “hERG current change (%, negative = inhibition) at 10uM” value was determined as 10%. As for `COC(=O)C1CCN(C(=O)C2CCCCC2)CC1`, the “hERG current change (%, negative = inhibition) at 10uM” value is reported as -1.12%. Regarding `Cc1ccccc1NC(=O)C1CCCN(S(=O)(=O)c2c(C)noc2C)C1` (centres unmarked), the “hERG current change (%, negative = inhibition) at 10uM” value is listed as -4.83%. As to `O=C(OCCOCCN=C1NS(=O)(=O)c2ccccc21)C1CC(=O)N(c2ccccc2)C1` (centres unmarked), the “hERG current change (%, negative = inhibition) at 10uM” value is listed as 13.1%. The same measure for `COP1(=O)C[C@@H](O)[C@@H](O)[C@@H](COCc2ccccc2)O1` (some centres unmarked): 11%. The same measure for `O=C(CSCc1ccccc1)N1CCN(c2ccccc2)CC1`: -25.7%. Then `Cc1cc(C)c2c(=O)[nH]c(SCC(=O)NCCc3ccccc3)nc2n1`, with -2.47%.

For the compound `COc1ccc(OC)c(NC(=O)COC(=O)c2c(C)noc2C)c1`, the “hERG current change (%, negative = inhibition) at 10uM” value was 12.6%. Then `COC(=O)c1ccc(CSc2cc(C)c3cc(C)cc(C)c3n2)o1`, with 20.8%. Regarding `CCOC(=O)C1CCN(C(=O)c2ccc(Cl)c(Cl)c2)CC1`, the “hERG current change (%, negative = inhibition) at 10uM” value is -15.4%. In the case of `Cc1c(NS(=O)(=O)c2ccc(N3CCN(C)CC3)c([N+](=O)[O-])c2)c(=O)n(-c2ccccc2)n1C`, the “hERG current change (%, negative = inhibition) at 10uM” value was found to be 13.7%. Then `Cc1csc(CN(C)C(=O)C2CCC(=O)N(CCN(C)C)C2)n1` (centres unmarked), with -8.18%; and `Cc1cccc(CSCCNC(=O)c2ccc(N(C)S(=O)(=O)c3ccccc3)cc2)c1`, with -4.05%; and `COc1ccc(Cl)cc1-n1c(=S)sc2c(=O)[nH]c(SCC(=O)NCC3CCCO3)nc21` (centres unmarked), with 12.1%. Then `CC(C)[C@@H](NC(=O)C1CCC(CNC(=O)[C@H](Cc2ccccc2)NC(=O)OC(C)(C)C)CC1)C(=O)O` (some centres unmarked), with 11.8%; and `COc1ccc(C(=O)N/N=C(\C)c2ccc3c(c2)C2C=CCC2C(c2ccccc2)N3)cc1` (centres unmarked), with -1.79%; and `Cc1ccsc1/C=N/NC(=O)Cc1cc(=O)[nH][nH]1`, with 2.71%.

As for `CN(N)c1nc(-c2ccccc2)cc(-c2ccccc2)n1`, the “hERG current change (%, negative = inhibition) at 10uM” value is given as 21.7%. On to `COc1ccc2nc(/N=C/c3c(C)[nH]n(-c4ccc(C)cc4)c3=O)sc2c1`, for which the “hERG current change (%, negative = inhibition) at 10uM” value is -10.5%. On to `COC(=O)C(O)(c1ccc(N(C)C(=O)OC(C)C)cc1)C(F)(F)F` (centres unmarked), for which the “hERG current change (%, negative = inhibition) at 10uM” value came to 15.5%.

On to `CCn1c(C)nnc1SCC(=O)NC1CCCC1`, for which the “hERG current change (%, negative = inhibition) at 10uM” value was -2.2%. The same measure for `COC(=O)c1sccc1NC(=O)CSc1ccccc1NS(=O)(=O)c1ccc(Br)cc1`: 23.3%; for `COC(=O)c1ccc(Oc2c(C)oc3c(CN4CCN(C)CC4)c(O)ccc3c2=O)cc1`: 11.9%; for `CN(C)c1nc(-c2ccccc2)ns1`: 11.7%.

Turning to `O=C(CSc1cccc2cccnc12)N1CCCC1`, the “hERG current change (%, negative = inhibition) at 10uM” value is listed as 12%. Then `Cc1ccc(C)c(-c2csc(Nc3ncccn3)n2)c1`, with 34.4%; and `CCOC(=O)c1c(NC(=O)c2cc(-c3ccc(Cl)s3)nc3ccccc23)sc(C(N)=O)c1C`, with 5.32%; and `Cc1csc2ncc(C(=O)Nc3ccc(C(F)(F)F)cc3)c(=O)n12`, with 14.3%. Then `CC/C(=N\O)c1c(O)c2c(n(-c3ccccc3)c1=O)CCCC2`, with 5.22%; and `Cc1cc(OCC(=O)N2CCC(C(=O)O)CC2)c2c3c(c(=O)oc2c1)CCCC3`, with 1.41%; and `COc1ccccc1C(=O)NCC(=O)OCc1ccc(Br)cc1`, with -41.7%.

As for `COC(=O)c1cc(CSc2nnc(NC3CCCCC3)s2)oc1C`, the “hERG current change (%, negative = inhibition) at 10uM” value was -10.1%.

Consider `COc1ccc(CC(=O)N2CCC(Nc3nc4ccccc4n3Cc3ccc(F)cc3)CC2)cc1`, for which the “hERG current change (%, negative = inhibition) at 10uM” value is recorded as -71.7%.

Regarding `C/C(=N\NC(=O)c1cccnc1)c1cc(C)oc1C`, the “hERG current change (%, negative = inhibition) at 10uM” value is 3.69%. Then `Cc1ccc(NC(=O)CN2C(=O)CN=C(c3ccccc3)c3cc(Cl)ccc32)cc1`, with -11.8%; and `CCOc1ccccc1Nc1nc2ccccc2n1C(C)C`, with 15.4%; and `CN1CCN(C(=O)c2ccc(S(=O)(=O)Nc3ccccc3)cc2)CC1.Cl`, with -10.4%. The same measure for `CCC(C)N1CCN(S(=O)(=O)c2ccc(NC(C)=O)cc2)CC1` (centres unmarked): 12.7%; for `CC(=O)c1ccc(Oc2nc(-c3cccnc3)nc3ccccc23)cc1`: 37.7%.

`CC[C@H](C)NC(=O)c1ccc(Cn2c(=S)[nH]c3c([nH]c4ccc(OC)cc43)c2=O)cc1`: the “hERG current change (%, negative = inhibition) at 10uM” value was -1.82%.

On to `COc1ccc(/C=C/C(=O)OCC(=O)Nc2c(C)cccc2C)cc1`, for which the “hERG current change (%, negative = inhibition) at 10uM” value was 12.5%.

As to `O=C(O)C1CC(=O)N(CCOc2ccccc2)C1` (centres unmarked), the “hERG current change (%, negative = inhibition) at 10uM” value was found to be 11.1%. The same measure for `COc1ccc2cc(C3CC(c4cccs4)=NN3C(C)=O)c(Cl)nc2c1` (centres unmarked): 14.8%; for `O=C(CCn1nc(-c2ccccc2)c2ccccc2c1=O)NCC1CCCO1` (centres unmarked): -1.21%. With `O=C(CN1C(=O)c2ccccc2S1(=O)=O)N1CCN(c2cccc(Cl)c2)CC1`, the “hERG current change (%, negative = inhibition) at 10uM” value worked out at 0.0187%. On to `NC(Cc1cc(O)c(O)cc1O)C(=O)O` (centres unmarked), for which the “hERG current change (%, negative = inhibition) at 10uM” value amounted to 7.9%. As to `CC(C)CCn1c(SCC(=O)c2ccccc2)nc2c1c(=O)[nH]c(=O)n2C`, the “hERG current change (%, negative = inhibition) at 10uM” value is listed as 17.7%. Then `CCOC(=O)N1CCN(S(=O)(=O)c2ccc(C(=O)Nc3sc4c(c3C(=O)OC)CCN(C)C4)cc2)CC1.Cl`, with -0.173%; and `CCOc1cc(S(=O)(=O)N2CCN=C2Cc2ccccc2)ccc1F`, with -26.4%; and `CCCn1c(SCC(N)=O)nnc1-c1ccco1`, with 12.6%.

`CCOc1ccc(-c2c(C(=O)N/N=C/c3ccc(OC(C)C)cc3)nnn2-c2nonc2N)cc1`: the “hERG current change (%, negative = inhibition) at 10uM” value was 2.86%. Regarding `CCOC(=O)C1CCCN(C(=O)c2cc(-c3ccncc3)nc3ccccc23)C1` (centres unmarked), the “hERG current change (%, negative = inhibition) at 10uM” value is -32.4%.

`COc1ccccc1S(=O)(=O)NCc1ccc(C(=O)N(C)Cc2ccc(F)cc2)cc1`: the “hERG current change (%, negative = inhibition) at 10uM” value is recorded as -12.5%. In the case of `CCOc1ccc(C2SCC(=O)N2c2c(C)n(C)n(-c3ccccc3)c2=O)cc1` (centres unmarked), the “hERG current change (%, negative = inhibition) at 10uM” value is on record as -2.35%. The same measure for `CCOC(CNC(=O)Cn1nc(C)c2ccccc21)OCC`: -26.3%; for `CC(C)c1ccc(CN2C(=O)c3ccccc3S2(=O)=O)cc1`: 16.8%.

As to `COc1ccc(OC)c(-c2cc(C(=O)N3CCN(c4ncccn4)CC3)c3ccccc3n2)c1`, the “hERG current change (%, negative = inhibition) at 10uM” value was -38.4%. For the compound `C/C=C(/C)C(=O)Nc1cccc(C2=NOC3(C2)C[C@@H](C(N)=O)N(C(=O)CC(c2ccccc2)c2ccccc2)C3)c1` (some centres unmarked), the “hERG current change (%, negative = inhibition) at 10uM” value is on record as -11.2%. The same measure for `CCN(Cc1ccccc1)c1ccc(N=Nc2nn(C)c(C)c2[N+](=O)[O-])cc1`: -8.31%; for `Cc1ccccc1CN1CCN(C(=O)Cc2ccccc2)CC1.Cl`: 22.1%. Then `Cl.Oc1ccc(CCNc2c3ccccc3nc3ccccc23)cc1O`, with -68.2%.

For the compound `O=C(c1cc([N+](=O)[O-])ccc1N1CCOCC1)N1CCN(S(=O)(=O)c2cc(Cl)ccc2Cl)CC1`, the “hERG current change (%, negative = inhibition) at 10uM” value is given as -32.3%. In the case of `CCOC(=O)COc1cccc2c(=O)n(CC(=O)N3CCc4ccccc43)ccc12`, the “hERG current change (%, negative = inhibition) at 10uM” value is 14.5%. Then `Fc1ccccc1CSc1nc2ncccc2[nH]1`, with -8.71%. Then `NC(=O)NC(CC(=O)OCC(=O)NC(=O)NCc1ccco1)c1ccc(Cl)cc1` (centres unmarked), with -3.2%. The same measure for `O=S(=O)(c1ccc(-c2cc(C(F)(F)F)on2)s1)N1CCCC1`: 6.3%; for `Cc1cc(=O)oc2c(C)c(OCC(=O)N3CCN(c4ccc(F)cc4)CC3)ccc12`: -65.9%. With `CCc1[nH]nc(C(=O)N2CCCC(CO)(Cc3ccc(F)cc3F)C2)c1C` (centres unmarked), the “hERG current change (%, negative = inhibition) at 10uM” value is 2.92%. Regarding `O=C(Cn1cnc([N+](=O)[O-])c1)NCCc1ccccc1`, the “hERG current change (%, negative = inhibition) at 10uM” value was 1.96%. The same measure for `CN(C)c1nc(N)nc(-c2nc3ccccc3s2)n1`: -3.77%. Consider `O=C(CSc1ccsc1[N+](=O)[O-])N1CCN(c2ccccn2)CC1`, for which the “hERG current change (%, negative = inhibition) at 10uM” value is recorded as -0.719%. Consider `COCCCNC(=S)N(Cc1ccccc1)Cc1ccccc1`, for which the “hERG current change (%, negative = inhibition) at 10uM” value is on record as -11.2%. On to `COc1ccc(C2c3ccc4ccccc4c3Oc3ncn(CCN4CCOCC4)c(=N)c32)cc1OC` (centres unmarked), for which the “hERG current change (%, negative = inhibition) at 10uM” value is listed as -53.4%. For `O=C(/C(=C(\O)c1ccccc1)c1nc2ccccc2[nH]1)c1ccccc1`, the “hERG current change (%, negative = inhibition) at 10uM” value is on record as 2.74%. As for `COc1ccccc1OCc1nnc(SCC(=O)NCc2ccco2)n1Cc1ccco1`, the “hERG current change (%, negative = inhibition) at 10uM” value is -34.1%. Consider `COc1ccc(OC)c(C(=O)COC(=O)c2c(OC)cccc2OC)c1`, for which the “hERG current change (%, negative = inhibition) at 10uM” value turned out to be 8.03%.
